Laboratory results as given in publication PMC5836133.
The other results are listed elsewhere or left out. At the low end of the ranking, values are background and their order means little.

System: T1, GST-NbGlk1(82-244)
T1 sequence: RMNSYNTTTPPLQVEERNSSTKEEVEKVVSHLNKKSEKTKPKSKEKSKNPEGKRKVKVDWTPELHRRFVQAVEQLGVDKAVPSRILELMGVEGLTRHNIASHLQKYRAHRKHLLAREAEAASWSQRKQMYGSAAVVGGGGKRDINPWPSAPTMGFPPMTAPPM
Assay: protein-binding microarray;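 also: rank-based score ranging −0.5 to +0.5 with E above 0.45 taken as significant binding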
Details: NbGlk1 is a Golden2-like transcription factor of Nicotiana benthamiana; high values mean tight binding; most listed sequences are background and not binding sites; double strand, one strand shown

Sequence | binding signal
ACGCCATC | -0.118 E-score
ACTGGCTG | -0.204 E-score
ATTTACAG | 0.201 E-score
AGTCGCTC | -0.229 E-score
AACCTTTA | 0.126 E-score
AGCCGTGC | -0.223 E-score
ACTCGAAC | -0.0967 E-score
AAATACAC | 0.0256 E-score
ACCCACAG | -0.256 E-score
AGTTACTA | -0.00404 E-score
AATCAATA | 0.274 E-score
ACGCTGCG | -0.111 E-score
AATCATAC | 0.263 E-score
AGATTTTC | 0.488 E-score
AGCAGGTG | -0.2 E-score
ACCTTTGA | -0.00246 E-score
AGCACAAA | 0.0287 E-score
ACAATCCT | 0.302 E-score
ACTTGGAC | -0.0515 E-score
AGGCTGAT | 0.0306 E-score
AAGACACC | -0.118 E-score
AGAGAGAC | -0.32 E-score
AAAGGCTA | -0.121 E-score
AGTGGGAT | 0.105 E-score
ATGTAGCC | -0.27 E-score

Sequence | binding signal
ACCACGCC | -0.229 E-score
ACGTGTCA | -0.166 E-score
ATCCTTGG | 0.194 E-score
AGCTCTGC | -0.195 E-score
AGACTTCA | -0.198 E-score
AGTATCGA | 0.16 E-score
AGAATCCC | 0.433 E-score
AGGACCTG | -0.254 E-score
ATGCCGTG | -0.0945 E-score
AACAGTAC | -0.0484 E-score
ATCGCACC | 0.247 E-score
ATAAGTCC | -0.0199 E-score
ACTCCTTC | -0.223 E-score
AGTTGTGG | -0.109 E-score
AACCCCAA | -0.203 E-score
AATCCTGC | 0.356 E-score
AACCCGAT | 0.0786 E-score
ACCGTAGT | -0.135 E-score
AGGCGGTG | -0.0949 E-score
ACTTGTGA | -0.0277 E-score
AGCACATC | -0.153 E-score
AGACTGGG | -0.165 E-score
CAATCTAA | 0.351 E-score
ACTGTACA | -0.0745 E-score
ACGTAGCC | -0.211 E-score

Sequence | binding signal
ACCAGCAC | -0.108 E-score
AAGGTTGT | -0.149 E-score
AAGTACGC | -0.125 E-score
AATTGCCA | 0.0599 E-score
ACGACGCC | -0.172 E-score
AACGCTTA | -0.07 E-score
ACTGACGG | 0.0189 E-score
ACCCCAAT | -0.214 E-score
AGCAGTAC | -0.102 E-score
ACGTTAGT | 0.0229 E-score
ACGTTAGG | -0.0399 E-score
ACGATTAT | 0.164 E-score
AAAGTACG | 0.0564 E-score
ATTGTCGA | 0.146 E-score
CAAAAGGA | 0.0725 E-score
ATTAGAAC | 0.00223 E-score
AGTGAATA | 0.0746 E-score
AATAGAGA | 0.257 E-score
CACATGGA | -0.0277 E-score
CAATAGTA | 0.0816 E-score
ATCCCACG | 0.0503 E-score
AGGGAGTA | -0.0612 E-score
AGCTGGCA | -0.112 E-score
AACATCCC | -0.0434 E-score
ATGAAAGG | -0.185 E-score

Sequence | binding signal
CACCCCGC | -0.0796 E-score
ACCGACGG | -0.298 E-score
ACCGAATA | 0.152 E-score
ATCACCAG | 0.0973 E-score
ACGGATGC | -0.1 E-score
AACCGGGG | -0.18 E-score
CACGCGAC | -0.0712 E-score
ATGTATAC | 0.133 E-score
ACTTGCCC | -0.225 E-score
ACCTGACG | -0.241 E-score
AAGGGGAG | -0.0864 E-score
AGATCGGC | 0.0957 E-score
CAGACAGA | -0.0531 E-score
AAAAGCAC | 0.0351 E-score
ACCTGATC | 0.033 E-score
ATGGCTCC | -0.141 E-score
ACAAGCTC | -0.179 E-score
AATCGCGA | 0.376 E-score
ATCCAGAT | 0.364 E-score
ACGCCACC | -0.152 E-score
ATTGATAG | 0.135 E-score
ATCTCCGA | 0.311 E-score
AACAAATA | 0.197 E-score
AAACTTGC | -0.026 E-score
AAGCCCCT | -0.272 E-score

Sequence | binding signal
ATGTAGTG | -0.00293 E-score
ATTAGCCA | -0.0468 E-score
ACTCGAAA | 0.0429 E-score
AATGGGCC | -0.28 E-score
CACAATGG | -0.0952 E-score
ATATGCTA | 0.224 E-score
ATCATCTG | 0.16 E-score
AATCTCAA | 0.421 E-score
ATTTATCG | 0.184 E-score
ACGGGCCA | -0.235 E-score
AAGCACCT | -0.188 E-score
AAATATGA | 0.226 E-score
AACCTTCT | -0.234 E-score
AGCGAGCA | -0.0448 E-score
CACGAAAG | -0.0933 E-score
AGAGCCCT | -0.272 E-score
CACGGTCG | -0.166 E-score
CACGAGTC | -0.0598 E-score
ATGTAGCG | -0.233 E-score
ACTGCCCC | -0.196 E-score
ACGAGGTA | -0.0641 E-score
AACCGCCT | -0.248 E-score
AGGAGATG | -0.0561 E-score
ATCGGGTC | -0.0136 E-score
AAGGCGTA | -0.12 E-score

Sequence | binding signal
ATATGACA | 0.0921 E-score
ACTTCATC | -0.181 E-score
CAAACCTA | 0.0926 E-score
ATATCTCA | 0.389 E-score
AAGTAAGG | -0.0411 E-score
ATACTGAA | 0.116 E-score
AGTGCGGA | -0.000344 E-score
ACTGTTGC | -0.223 E-score
AGAGGGAT | 0.0446 E-score
AGAAGTGA | -0.0712 E-score
AAGAGCCT | -0.202 E-score
ATCCGTGA | 0.236 E-score
AGCGGACC | -0.246 E-score
AAGGTAGG | -0.0722 E-score
AAATGCTC | -0.086 E-score
AATCACGC | 0.256 E-score
AGGGTACC | -0.332 E-score
ACCAATGA | -0.00998 E-score
AGTGATGA | 0.0264 E-score
ATGAAATC | 0.452 E-score
ATTTCCCC | 0.333 E-score
AAGGGATT | 0.318 E-score
ATCTCAAT | 0.245 E-score
ATCGCAAG | 0.198 E-score
ACAAGGCC | -0.223 E-score

Sequence | binding signal
ACCACATA | 0.0346 E-score
AATTTGGT | 0.1 E-score
ACAATTAC | 0.184 E-score
ATCTAGAA | 0.259 E-score
AGAACTGC | -0.0745 E-score
ACTGCGTA | 0.0927 E-score
ACAGGCGT | -0.25 E-score
ATACGGTC | 0.0679 E-score
ACTGAACG | -0.0512 E-score
CACAGGGC | -0.244 E-score
ACTTTCCC | 0.0587 E-score
AAAGTCCG | -0.092 E-score
ATTCTTTG | 0.298 E-score
ACATTCGA | 0.0193 E-score
AACTAAAA | 0.195 E-score
AGCTATAA | 0.0236 E-score
ATAAACAC | 0.0306 E-score
AAGAACAA | 0.0422 E-score
AACCGGCT | -0.23 E-score
AGGAGTAT | -0.00811 E-score
AGCAGCAA | -0.0389 E-score
ATAAATAA | 0.13 E-score
